Results on 31 compounds are retold here after PubChem BioAssay AID488969 (Vanderbilt High Throughput Screening Facility, 2010).

Over roughly 110,000 compounds, “z-score” has its median near -0.1; the highest 2% begin near 2. This is one part of the list.

The test has as its target Metabotropic glutamate receptor 8 (Rattus norvegicus) (UniProt P70579). The experiment in a line: rat mGluR8 modulators via GIRK flux, primary screen, cell-based, thallium flux, HTS (AID 488969). Particulars: HEK293 rat mGluR8, GIRK (G protein-gated inwardly rectifying potassium channel) thallium flux, FluoZin2; at 10 µM; stronger effect = higher value; submaximal glutamate (EC20) added with thallium.
Sequence of UniProt P70579 (P70579 whole entry, looked up): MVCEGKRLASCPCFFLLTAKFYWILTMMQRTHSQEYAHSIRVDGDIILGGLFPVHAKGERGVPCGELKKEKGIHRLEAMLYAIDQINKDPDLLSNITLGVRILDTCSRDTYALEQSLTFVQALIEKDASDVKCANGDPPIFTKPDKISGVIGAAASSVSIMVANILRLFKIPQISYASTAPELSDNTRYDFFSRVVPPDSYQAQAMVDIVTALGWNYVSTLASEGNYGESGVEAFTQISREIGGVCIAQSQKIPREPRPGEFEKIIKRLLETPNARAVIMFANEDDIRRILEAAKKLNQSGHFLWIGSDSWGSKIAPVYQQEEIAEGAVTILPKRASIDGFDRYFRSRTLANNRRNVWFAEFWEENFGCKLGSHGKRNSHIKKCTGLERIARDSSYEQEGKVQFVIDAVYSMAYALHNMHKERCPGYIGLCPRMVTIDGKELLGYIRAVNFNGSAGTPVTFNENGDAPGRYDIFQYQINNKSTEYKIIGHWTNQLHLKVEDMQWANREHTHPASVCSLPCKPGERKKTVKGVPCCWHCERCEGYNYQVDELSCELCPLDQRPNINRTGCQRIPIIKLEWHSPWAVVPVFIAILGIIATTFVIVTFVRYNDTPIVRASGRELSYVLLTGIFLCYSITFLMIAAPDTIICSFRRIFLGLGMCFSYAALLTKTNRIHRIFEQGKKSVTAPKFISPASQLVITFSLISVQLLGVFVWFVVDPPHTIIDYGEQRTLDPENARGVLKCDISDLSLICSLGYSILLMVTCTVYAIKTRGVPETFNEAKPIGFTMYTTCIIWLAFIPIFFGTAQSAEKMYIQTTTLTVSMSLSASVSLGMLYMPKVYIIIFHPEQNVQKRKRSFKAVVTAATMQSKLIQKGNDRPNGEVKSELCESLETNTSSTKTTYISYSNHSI
On to `COc1ccc2nc(C)cc(SCC(=O)NNC(=O)COc3ccc(C)cc3)c2c1`, for which the z-score is -0.000743.
As for `O=C(Nc1nc2ccccc2n1CCOc1ccccc1)c1ccco1`, the figure is 0.878; as for `CC(=O)Nc1nc(-c2cccs2)cs1`, -0.281; as for `COc1ccc(-c2csc(NC(=O)C3CC(=O)N(c4ccc5c(c4)OCCO5)C3)n2)cc1` (stereo unspecified), -0.0726.
As for `Cc1ccc(OCCSc2nnc(-c3cccs3)n2C)cc1`, the figure is -0.185.
As for `COc1ccc(OC)c(CNC(=O)COc2cc(=O)n(C)c3ccccc23)c1`, the figure is 0.148; as for `COc1ccc(/C=N/NC(=O)c2ccc(=O)[nH]n2)cc1OC`, -0.178; as for `CCC(=O)Nc1ccc(S(=O)(=O)NCCc2ccccc2)cc1`, -0.234.
`O=C(CSc1ncccn1)Nc1ccc(N2CCOCC2)cc1`: the z-score is -0.202.
`COc1ccc(CC(=O)NC(C)c2nnc(SCCOc3ccc(OC)cc3)n2C)cc1` (stereo unspecified): the z-score was -0.475.
The same measure for `COC(=O)c1cc2sccc2n1Cc1nc(-c2cccc(Cl)c2)oc1C`: -0.177; for `O=C(Nc1ccc(NC(=O)C2CC2)cn1)c1ccccc1Cl`: 0.115.
As for `COc1ccc(OC)c(Nc2nc(-c3cccc([N+](=O)[O-])c3)nc3ccccc23)c1`, the figure is -0.0845.
The same measure for `Cc1ccc(NC(=O)c2cc(S(=O)(=O)c3ccccc3)ccc2Cl)cc1`: -0.0678.
`O=C(Nc1ccc(S(=O)(=O)NCc2ccco2)cc1)c1ccncc1` gave a z-score of 0.137.
As for `Cc1nnc(-c2ccc(Oc3ccc(C)c(C)c3)c([N+](=O)[O-])c2)o1`, the figure is -1.15; as for `COc1ccc(OC)c(C=Nc2ccccc2-c2nc3ccccc3[nH]2)c1`, -0.659; as for `CCC1CCc2[nH]nc(C(=O)O)c2C1` (stereo unspecified), -1.27.
As for `C=CCNC(=S)N/N=C(\C)c1ccc(OC)cc1`, the figure is 2.03; as for `CCOc1ccc(N(CC(=O)NC(C)(C)C)S(=O)(=O)c2c(C)noc2C)cc1`, -0.546; as for `Cc1cc(C)cc(NC(=O)CSc2nnc(-c3ccccc3Br)o2)c1`, -0.268.
Consider `C=CCSc1nnc(NC(=O)CSc2nc(CCC)cc(=O)[nH]2)s1`, for which the z-score was -2.18.
As for `CC(=O)N1c2ccccc2Oc2cc3ccccc3cc21`, the figure is -0.261; as for `Cc1cc(C(C)(C)C)cc(S(=O)(=O)Nc2ccc(O)c(C(=O)O)c2)c1C`, -0.214.
Turning to `COc1cccc(-c2nc(-c3ccccn3)no2)c1`, the z-score is -0.111.
The same measure for `O=C(Cn1c(=O)[nH]n(-c2ccccc2)c1=O)N1CCCc2ccccc21`: 0.648; for `Cc1cccc(NC(=S)NC(C)CCc2ccccc2)c1` (stereo unspecified): 0.2; for `CC1CC(C)(C)N(C(=O)CSc2ccc(-c3ccc(F)cc3)nn2)c2ccccc21` (stereo unspecified): -0.024.
As for `Clc1ccc(CSc2nnc(CNc3cccc(Cl)c3)o2)cc1`, the figure is -0.666; as for `Cn1cccc1C1NC(=O)c2c(sc3c2CCC(C(C)(C)C)C3)N1` (stereo unspecified), 0.481.
For `COC(=O)C1=C(C(=O)OC)C(c2cc(Cl)ccc2O)c2sc(=O)[nH]c2S1` (stereo unspecified), the z-score was -0.643.
